# Measured values reported in the RNAGym collection of RNA variant scans (doi:10.1093/nar/gkz1192).
# Read counts are not given, so values of variants with three or more changes are uncertain.
# B1: CPEB3 Ribozyme (parent)
# chain: UAACAGGGGGCCACAGCAGAAGCGUUCACGUCGCAGCCCCUGUCAGAUUCUGGUGAAUCUGCGAAUUCUGCUGUAUAUCUC
# Variants of: B1
# Experiment: self-cleavage, relative activity (ratio to wild type); higher = more cleavage; in vitro, sequencing
# How it was run: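 After error-prone PCR and barcoding, CPEB3 ribozyme mutant libraries were transcribed with T7 RNA polymerase at 37°C for 5 hours, then given 15 min with DNase I before an EDTA stop, and they cleaved during both steps. Reverse transcription with template switching preceded Illumina sequencing. Relative activity divides a variant's cleaved/total read fraction by the unmutated ribozyme's. At least 5 reads were required per variant, and three batches were averaged.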
row,Variant,self-cleavage
1,A5U A13G A18G U26A U49A U74C U78C,0.16
2,A5G U26C U69C,0.26
3,A5G U26C U69A,0.29
4,A5G U69G U72C,0.36
5,A5G U31A U43C A75U,0.7
6,A5G U41A G53A C62U A75U U80C,0.11
7,A5G U43A C62A U80A,0.14
8,A5G U25C U67C,0.09
9,A5U A13U G19A G52U A64U,0.1
10,A5G U26A A45G U78C,0.43
11,A5G U43C U51C A64C,0.14
12,A5G U43C U67A,0.32
13,A5G U25C A28G U80C,0.12
14,A5G U41C U58A,0.26
15,A5G U41A U69G U80G,0.28
16,A5G U26A G30C A45U U58A,0.27
17,A5G U41A A45C G73A,0.6
18,A5G U26A A57U,0.13
19,A5G U49C U69C,0.4
20,A5G U43C U58C U66C,0.08
21,A5G U26A A45G U51C A75U,0.17
22,A5G U25A A77G,0.24
23,A5G U58A G70U,0.11
24,A5G U26C U74A,0.35

row,Variant,self-cleavage
1,A5G U25C C62U U80C,0.31
2,A5G U31C C38A U48C U49C U51C,0.14
3,A5G U41C A75U,0.59
4,A5G U48C U49C,0.43
5,A5G U51A G73A,1.1
6,A5G U48C G70U U80C,0.17
7,A5G U25C A57G,0.37
8,A5G U31C G61A,0.3
9,A5U A13G U51A,0.85
10,A5G U43C U60C,0.22
11,A5G U26C C39G U41A U67A,0.06
12,A5G U49C U78C,0.17
13,A5G U49C U78A,0.36
14,A5G U25C U31C,0.6
15,A5U A13G A18G C27A G55A U67C U80C,0.08
16,A5G U48C U54C U66C,0.4
17,A5G U31C U76C,0.62
18,A5U A13U A15C A56G,1.08
19,A5G U31C A75U U78C,0.27
20,A5G U54A A57G U67A,0.42
21,A5G U26C U43C,0.48
22,A5G U26C U43G,0.55
23,A5U A13U A64C U67C,0.22
24,A5U A13U G36U U49C U78C,0.14

row,Variant,self-cleavage
1,A5G U26G U49C C50U U54C U76C,0.1
2,A5G U58C A64U,0.21
3,A5G U31C A45U U69A,0.16
4,A5G U31C U60C,0.36
5,A5G U31A U58C A65C,0.1
6,A5U A13C U25C A28G A56U U78C,0.19
7,A5G U31G A45G A47G U51A G63A,0.13
8,A5U A13U A18G U54C U76C,1.13
9,A5G U31C A45G U74C,0.7
10,A5G U31C A56G A57G,0.32
11,A5G U43C U51C U78A,0.71
12,A5G U26C U67A U74C,0.32
13,A5G U26C A56C U58C,0.27
14,A5G U41A A45G A56G U78C,0.08
15,A5G U31A U43C,0.27
16,A5G U48C A56G A75U,0.32
17,A5G U25C U31C A77U,0.17
18,A5G U43C U54A,0.5
19,A5G U31C U78C,0.73
20,A5G U43C U60C U67C,0.09
21,A5G U43A U51A U80A,0.5
22,A5U A13C U69C U80C,0.72
23,A5U A13G A35C A56G U78G C81U,0.56
24,A5G U54C U60C,0.34

row,Variant,self-cleavage
1,A5G U41C U80C,0.75
2,A5G U43G C62A,0.66
3,A5G U25C C44G A45G U72C,0.24
4,A5G U48C C68G C79U,0.07
5,A5G U51C U78C,0.64
6,A5G U60A U67C U72A,0.08
7,A5G U72C A75G U78A,1.09
8,A5U A13U A18G A20G A28U,0.09
9,A5G U26A U54C U60A U69C,0.21
10,A5G U43A U51C U78A,0.89
11,A5G U25C G42A A65G U72G,0.22
12,A5G U26A A35U U58A U60C,0.33
13,A5U A13U A21G C27A U74G U78A,0.18
14,A5U A13G A20G U26A A35U,0.36
15,A5G U43C U66A U69C U72C,0.12
16,A5G U25C A56U,0.31
17,A5G U26C U76A,0.44
18,A5U A13G A28U C32G C79A,0.12
19,A5U A13U A28C G55A C81U,0.48
20,A5G U25C C34U U60C A65G,0.24
21,A5G U31A A77G U80C,0.3
22,A5G U31C U41A A45G C62G A64U,0.35
23,A5G U48C U67C,0.1
24,A5G U48C G53U,0.69

row,Variant,self-cleavage
1,A5G U26A A28G A35G C62A,0.11
2,A5G U26C A57G U67A U72A,0.23
3,A5G U25C U49C U54C U69A C81U,0.05
4,A5G U41C U54A A56U,0.5
5,A5G U54C A57G U74C,0.17
6,A5G U76C U80C,0.68
7,A5U A13G A28G U31A U51A U58C U72A,0.07
8,A5G U25A U51A U58C,0.2
9,A5U A13C U25C A35G,0.23
10,A5G U41A U51A A57C,0.09
11,A5G U31C U58C,0.34
12,A5U A13G A21G U41C,0.6
13,A5U A13U A28G U54C U69A,0.1
14,A5G U43C A56G U58A U66C,0.1
15,A5G U49C U66C,0.3
16,A5G U31A A45G U48C A56U U67C A75C,0.04
17,A5G U41G U51A A75U,0.62
18,A5G U25A A45G,0.31
19,A5G U69A U72A,0.39
20,A5G U26G U49A C59G,0.08
21,A5U A13G A57G U76C C81G,0.93
22,A5G U25G A28C U41A U48C U69C U72C,0.49
23,A5U A13G A20U U69G U74A,0.09
24,A5G U25C U48C A64U,0.13

row,Variant,self-cleavage
1,A5G U26A A65U,0.12
2,A5G U51A U72C,0.72
3,A5U A13G A35U U54A A64U A75G,0.13
4,A5G U54A C81U,0.45
5,A5G U25C U41A A45G U58A A75G,0.05
6,A5G U41C U49C U58C U60A U66C U72A,0.1
7,A5G U26C U31C G36A U74G A77U,0.06
8,A5U A13G A57G U78C,0.6
9,A5G U26C A35U U74C,0.29
10,A5G U31A U69A U80C,0.31
11,A5U A13U A18G A21C U80A,0.4
12,A5G U25C U54A,0.14
13,A5G U54C U80C,0.89
14,A5U A13G U60A,0.19
15,A5G U31C C62U,0.25
16,A5U A13G C27U A35U A65U U72C U74C,0.09
17,A5G U31A U60A U66A,0.31
18,A5G U48C U54C A57G U67G,0.13
19,A5G U48A U69A,0.42
20,A5G U72A A77G,0.63
21,A5G U49C U51A U60C U67C A75U,0.19
22,A5G U48C U58G A65G,0.44
23,A5G U26A C34U A47C U69A,0.09
24,A5G U41C U43C G46U A47G U80C,0.09

row,Variant,self-cleavage
1,A5G U25C U69G U72A,0.09
2,A5U A13G A15G A35U U69G,0.07
3,A5G U48C U54A C81U,0.6
4,A5G U26A G46U,0.42
5,A5G U25C U78C,0.63
6,A5G U67C U80C,0.17
7,A5G U67C U80A,0.22
8,A5G U43C U51A,0.28
9,A5U A13G U58A,0.58
10,A5G U51A G52A,0.49
11,A5U A13G A18G U41A,0.09
12,A5U A13G G33A U41A U54A,0.35
13,A5G U31A A56G U80A,0.49
14,A5G U31C C40U U58A U72A A75G,0.28
15,A5G U48C U69C U72C,0.15
16,A5G U72A A75U U78C,0.87
17,A5U A13G A28G,0.55
18,A5G U25C U31A U67C U69C A77G,0.13
19,A5G U25C A65G,0.22
20,A5G U31A A35G A57G G61A U72A,0.14
21,A5G U31C U80C,0.28
22,A5G U26C U43C A45G U60C,0.64
23,A5U A13G A18U A56G U67A G73C,0.18
